Measured values published in the supplement of paper PMC4604168 (melanoma cell lines).
The list shows a part of the results. Most values come without repeats; read them as rough.

Assays:
Experiment in all cases: cell count relative to DMSO control; melanoma cells; higher = more viable cells
Details in all cases: library dose: low library concentration; 72 h
[1] = tested on: WM115
[2] = tested on: WM1716
[3] = tested on: WM1745
[4] = tested on: WM3526
[5] = tested on: WM3619
[6] = tested on: WM451Lu
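Further: cell number obtained by counting DAPI-stained nuclei in high-throughput microscope images with image analysis software, screen run in 1,536-well plates.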

Compound	cell count [1]	cell count [2]	cell count [3]	cell count [4]	cell count [5]	cell count [6]
CO[C@@H]1[C@H](N(C)C(=O)c2ccccc2)C[C@H]2O[C@]1(C)n1c3ccccc3c3c4c(c5c6ccccc6n2c5c31)C(=O)NC4 [Midostaurin] + CC(C)(C)c1cnc(CSc2cnc(NC(=O)C3CCNCC3)s2)o1 [SNS-032] (first compound 0.08 µM, partner dose 0.01 µM)	80.5%	80%	82.1%	107%	93.9%	88.8%
NCC(=O)Nc1ccc(-n2nc(C(F)(F)F)cc2-c2ccc3c(ccc4ccccc43)c2)cc1 + Cc1cc([N+](=O)[O-])ccc1NS(=O)(=O)c1cc(Cl)ccc1Cl [FH535] (first compound 1 µM, partner dose 1 µM)	98.2%	96.2%	91.8%	51.3%	104%	76%
NC(=O)Nc1cc(-c2cccc(F)c2)sc1C(=O)N[C@H]1CCCNC1 + C[C@@H]1CCN(C(=O)CC#N)C[C@@H]1N(C)c1ncnc2[nH]ccc12 [CP690550] (first compound 0.02 µM, partner dose 1 µM)	92.6%	83.6%	95.2%	84.9%	69.6%	92.3%
CO[C@@H]1[C@H](N(C)C(=O)c2ccccc2)C[C@H]2O[C@]1(C)n1c3ccccc3c3c4c(c5c6ccccc6n2c5c31)C(=O)NC4 [Midostaurin] + O=S(=O)(c1ccccc1)N(CC(F)(F)F)c1ccc(C(O)(C(F)(F)F)C(F)(F)F)cc1 [T0901317] (first compound 0.08 µM, partner dose 1.4 µM)	89.6%	80.5%	75.5%	84.4%	80.1%	101%
C=CCn1c(=O)c2cnc(Nc3ccc(N4CCN(C)CC4)cc3)nc2n1-c1cccc(C(C)(C)O)n1 + Cc1cc([N+](=O)[O-])ccc1NS(=O)(=O)c1cc(Cl)ccc1Cl [FH535] (first compound 0.02 µM, partner dose 1 µM)	85.6%	82.3%	76.5%	110%	76.8%	105%
NC(=O)Nc1cc(-c2cccc(F)c2)sc1C(=O)N[C@H]1CCCNC1 + CC(C)CCN1c2nc(Nc3cc(F)c(O)c(F)c3)ncc2N(C)C(=O)C1C [BID1870] (first compound 0.02 µM, partner dose 0.2 µM)	96.8%	82.2%	94%	74.5%	47.4%	68.1%
CN(C)S(=O)(=O)c1ccc2c(c1)/C(=C/c1cc3c([nH]1)CCCC3)C(=O)N2 + CCc1ccc(CCOc2ccc(CC3SC(=O)NC3=O)cc2)nc1 [pioglitazone] (first compound 0.4 µM, partner dose 2 µM)	74%	108%	80.9%	99.8%	115%	128%
Cc1nc(Nc2ncc(C(=O)Nc3c(C)cccc3Cl)s2)cc(N2CCN(CCO)CC2)n1 [dasatanib] + COc1ccc(COc2ccc(Cc3cnc(N)nc3N)cc2OC)cc1 [GW2580] (first compound 0.004 µM, partner dose 1 µM)	81.2%	67.1%	60.3%	109%	104%	83.7%
CO[C@@H]1[C@H](N(C)C(=O)c2ccccc2)C[C@H]2O[C@]1(C)n1c3ccccc3c3c4c(c5c6ccccc6n2c5c31)C(=O)NC4 [Midostaurin] + N#Cc1c(O)c2c(-c3ccc(-c4ccccc4O)cc3)csc2[nH]c1=O [A769662] (first compound 0.08 µM, partner dose 2 µM)	89.3%	72.2%	88.4%	101%	105%	101%
Cc1nc(Nc2ncc(C(=O)Nc3c(C)cccc3Cl)s2)cc(N2CCN(CCO)CC2)n1 [dasatanib] + O=C(Nc1cccc(Cl)c1)Nc1ncc(CCNc2ncnc3ccsc23)s1 [SNS314] (first compound 0.004 µM, partner dose 0.0008 µM)	53.5%	83.8%	61.1%	91.2%	92.5%	70.1%
C=CCn1c(=O)c2cnc(Nc3ccc(N4CCN(C)CC4)cc3)nc2n1-c1cccc(C(C)(C)O)n1 + O=C(Nc1cccc(Cl)c1)Nc1ncc(CCNc2ncnc3ccsc23)s1 [SNS314] (first compound 0.02 µM, partner dose 0.0008 µM)	58.6%	81.9%	80.7%	64.3%	92.9%	128%
C=CCn1c(=O)c2cnc(Nc3ccc(N4CCN(C)CC4)cc3)nc2n1-c1cccc(C(C)(C)O)n1 + Cn1cc(/C=C2\C(=O)Nc3cccnc32)c2ccccc21 [GW441756] (first compound 0.02 µM, partner dose 0.4 µM)	93.6%	89.5%	77.1%	83.8%	86.4%	99.1%
